Molecules are shown by their SMILES. The list shows a part of the results.

The assay concerns HepG2. The assay is described as follows: cytotoxicity call (relative viability < 0.9). The note with it: 10 µM.
With `C[C@@H]1CCCCO[C@@H](CN(C)C(=O)Nc2ccccc2)[C@H](C)CN([C@H](C)CO)C(=O)c2cc(NC(=O)Nc3cccc4ccccc34)ccc2O1`, the cytotoxicity call is “inactive”.

As for `Cc1noc(C)c1S(=O)(=O)N(C)C[C@@H]1Oc2c(NC(=O)c3cnccn3)cccc2C(=O)N([C@@H](C)CO)C[C@@H]1C`, the cytotoxicity call is “inactive”.

Take `Cc1noc(C)c1NC(=O)Nc1ccc2c(c1)CC(=O)N([C@@H](C)CO)C[C@@H](C)[C@@H](CN(C)C(=O)Nc1ccc(C(F)(F)F)cc1)O2`: the cytotoxicity call was “inactive”.

Regarding `C[C@@H]1CN([C@H](C)CO)C(=O)c2cc(NS(=O)(=O)c3cn(C)cn3)ccc2O[C@@H]1CN(C)Cc1ccc2c(c1)OCO2`, the cytotoxicity call is “inactive”.

For `CC(=O)N(C[C@@H](O)CO)c1c(I)c(C(=O)NCCO)c(I)c(C(=O)NC[C@@H](O)CO)c1I`, the cytotoxicity call was “inactive”.

For the compound `COc1ccc(S(=O)(=O)Nc2ccc3c(c2)C(=O)N([C@@H](C)CO)C[C@H](C)[C@@H](CN(C)Cc2ccc(-c4ccccc4)cc2)O3)cc1`, the cytotoxicity call was “active”.

In the case of `Cc1noc(C)c1S(=O)(=O)Nc1cccc2c1O[C@H](CN(C)S(=O)(=O)c1cn(C)cn1)[C@H](C)CN([C@@H](C)CO)C2=O`, the cytotoxicity call is “inactive”.

Consider `CC(C)NC(=O)N(C)C[C@H]1OCCCC[C@@H](C)Oc2ccc(NS(C)(=O)=O)cc2C(=O)N([C@@H](C)CO)C[C@@H]1C`, for which the cytotoxicity call was “inactive”.

With `C[C@@H]1CCCCO[C@H](CN(C)CC2CCCCC2)[C@H](C)CN([C@@H](C)CO)C(=O)c2cc(NC(=O)Nc3cccc4ccccc34)ccc2O1`, the cytotoxicity call is “active”.

Take `C[C@H](CO)N1C[C@H](C)[C@@H](CN(C)Cc2ccncc2)Oc2c(NC(=O)c3cnccn3)cccc2C1=O`: the cytotoxicity call was “inactive”.

On to `Cc1noc(C)c1NC(=O)Nc1ccc2c(c1)C(=O)N([C@H](C)CO)C[C@@H](C)[C@@H](CN(C)CC1CCCCC1)OCCCC[C@@H](C)O2`, for which the cytotoxicity call was “inactive”.

With `COCC#Cc1ccc2c(c1)O[C@@H](CN(C)C(=O)Nc1ccc(OC)cc1)[C@H](C)CN([C@H](C)CO)S2(=O)=O`, the cytotoxicity call was “inactive”.

For the compound `CO[C@H]1CN(C)C(=O)c2cc(NC(=O)NC(C)C)ccc2OC[C@H](C)N(Cc2ccc(-c3ccccn3)cc2)C[C@@H]1C`, the cytotoxicity call was “active”.

On to `C[C@@H]1CN([C@@H](C)CO)C(=O)Cc2cc(NC(=O)Nc3ccc(C(F)(F)F)cc3)ccc2O[C@@H]1CN(C)Cc1ccc(C(F)(F)F)cc1`, for which the cytotoxicity call was “active”.

For the compound `COc1ccccc1NC(=O)Nc1ccc2c(c1)OC[C@@H](C)N(Cc1ccccc1C(=O)O)C[C@@H](C)[C@H](OC)CN(C)C2=O`, the cytotoxicity call is “inactive”.

`C[C@@H]1CCCCO[C@H](CN(C)C(=O)Nc2ccc3c(c2)OCO3)[C@H](C)CN([C@H](C)CO)C(=O)c2cc(NC(=O)NC3CCCCC3)ccc2O1`: the cytotoxicity call was “active”.

On to `C[C@H](O)C#Cc1ccc2c(c1)O[C@H](CN(C)C(=O)C1CCCCC1)[C@H](C)CN([C@@H](C)CO)S2(=O)=O`, for which the cytotoxicity call was “inactive”.

Consider `C[C@H](CO)N1C[C@H](C)[C@@H](CN(C)C(=O)c2cccnc2)Oc2cc(-c3cccc(C#N)c3)ccc2S1(=O)=O`, for which the cytotoxicity call is “inactive”.

For `C[C@@H]1[C@H]2[C@H](O[C@@H]3O[C@H](CO)[C@@H](O)[C@H](O)[C@H]3O)OC=C(C(=O)O)[C@H]2C[C@@H]1OC(=O)/C=C/c1ccc(O)cc1`, the cytotoxicity call was “inactive”.

For the compound `C[C@@H]1CN([C@H](C)CO)C(=O)c2ccccc2-c2ccccc2CO[C@@H]1CN(C)C(=O)Nc1cccc(Cl)c1Cl`, the cytotoxicity call is “inactive”.

`CC(C)(N)CN1CCCCC1`: the cytotoxicity call was “inactive”.

For `C[C@H](CO)N1C[C@H](C)[C@@H](CN(C)C(=O)Nc2ccc(F)cc2)Oc2c(NC(=O)c3ccc(-c4nccs4)cc3)cccc2C1=O`, the cytotoxicity call is “inactive”.

For `C[C@@H]1CN([C@H](C)CO)C(=O)c2cc(NS(=O)(=O)c3ccc(Cl)cc3)ccc2O[C@H]1CN(C)C(=O)Nc1ccc(C(F)(F)F)cc1`, the cytotoxicity call was “inactive”.

Turning to `Cc1noc(C)c1NC(=O)N(C)C[C@@H]1Oc2ccc(NC(=O)Nc3ccc(C(F)(F)F)cc3)cc2C(=O)N([C@@H](C)CO)C[C@@H]1C`, the cytotoxicity call is “inactive”.

For the compound `Cc1noc(C)c1NC(=O)Nc1ccc2c(c1)C(=O)N([C@@H](C)CO)C[C@@H](C)[C@@H](CN(C)Cc1ccc(Cl)c(Cl)c1)OCCCC[C@@H](C)O2`, the cytotoxicity call was “active”.

`CCS(=O)(=O)N1CC[C@]2(CC1)CN(CC1CCOCC1)[C@@H](CO)c1c2c2ccc(cc2n1C)OC`: the cytotoxicity call was “inactive”.

`Cc1noc(C)c1S(=O)(=O)N(C)C[C@@H]1Oc2ccc(NC(=O)CCC(F)(F)F)cc2CC(=O)N([C@@H](C)CO)C[C@@H]1C`: the cytotoxicity call is “inactive”.

Values taken from the antibiotic and cytotoxicity screens of Wong et al. (2023).
